Results published in patent publication US12606546B2, “Small molecule inhibitors of calcium channel activity and uses thereof” (Arizona Board of Regents on Behalf of the University of …, priority 2020, dated 2026).

System: high voltage activated calcium channels
Assay: Fura-2AM calcium imaging, 90 mM KCl-evoked Ca2+ influx in DRG neurons
Settings: 20 μM overnight, rat DRG neurons, relative to 0.01% DMSO

## Cc1ccc(C(c2nnnn2-c2c(C)cccc2C)N2CCN(C(=O)c3ccco3)CC2)s1 (stereo not shown) [5aa, 1-{[1-(2,6-dimethylphenyl)-1H-1,2,3,4-tetrazol-5-yl](5-methylthiophen-2-yl)methyl}-4-(furan-2-carbonyl)piperazine]
  inhibition of Ca2+ influx when DRGs were depolarized with 90 mM KCl: ~60%
